Laboratory results taken from the supplement of paper PMC9588766.
Where a name gives a salt, the structure may show the parent alone. ± gives the standard deviation of the averaged measurements. The full ranking holds about 2,000 compounds; the median of “cell viability relative to DMSO control (compound alone)” is about 0.98, and the lowest 2% start at about 0.23. The list shows a part of the results.

These compounds were tested on PDC-DUC18828 (assay: cell viability relative to DMSO control (compound alone) (fraction); PDC-DUC18828 is a patient-derived cholangiocarcinoma cell line; higher = less growth inhibition). Conditions: 1 µM; 72 h.
Protocol: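 Selleck Bioactive library screen in the patient-derived FGFR2-G3BP2 fusion-positive ICC cell line PDC-DUC18828 (500 cells/well). Each compound was tested at 1 uM alone, in triplicate, for 72 h. Viability was read by CellTiter-Glo and normalised to plate DMSO controls.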

`Cc1cc(Cl)ccc1OCCCC(=O)NO` [Droxinostat] and `O=C(CCCCCCC(=O)Nc1ccccc1)NO` [Vorinostat (SAHA, MK0683)] are within error of each other in cell viability: 0.995 ± 0.03 for the first, 1.02 ± 0.035 for the second.

`C/C(=C\C(=O)Nc1ccccc1C(=O)O)c1ccc2ccccc2c1` and `O=C(Oc1ccccc1C(=O)O)c1ccccc1O` [Sasapyrine] are within error of each other in cell viability: 1.07 ± 0.02 for the first, 1.09 ± 0.053 for the second.

`O=C(c1ccc(/C=C/c2n[nH]c3ccccc23)cc1)N1CCNCC1` and `COc1ccc2c(c1)c(CC(=O)N1CCOCC1)c(C)n2C(=O)c1ccc(Cl)cc1` are within error of each other in cell viability: 0.878 ± 0.035 for the first, 0.93 ± 0.052 for the second.

Compared with `CS(=O)(=O)c1ccc(-c2cnc(N)c(C(=O)Nc3ccccc3)n2)cc1`, `COc1ccc(S(=O)(=O)Nc2cccnc2Nc2ccc(O)cc2)cc1` is lower in cell viability: 0.975 ± 0.066 for the first, 0.45 ± 0.013 for the second.

Going from `COc1c(C)c2c(c(O)c1C/C=C(\C)CCC(=O)O)C(=O)OC2` [Mycophenolic acid] to `Cc1cc(OCCCS(C)(=O)=O)cc(C)c1-c1cccc(COc2ccc3c(c2)OC[C@H]3CC(=O)O)c1`, the cell viability rises from 0.501 ± 0.018 to 1.08 ± 0.071.

`C[C@H]1O[C@@H](n2cc(F)c(=O)[nH]c2=O)[C@H](O)[C@@H]1O` [Doxifluridine] and `O=c1ccn([C@@H]2O[C@H](CO)[C@@H](O)[C@H]2O)c(=O)[nH]1` [Uridine] are within error of each other in cell viability: 1.02 ± 0.042 for the first, 1.03 ± 0.034 for the second.

Compared with `CC(C)(C)c1nc(-c2cccc(NS(=O)(=O)c3c(F)cccc3F)c2F)c(-c2ccnc(N)n2)s1`, `Cc1ccnc(NS(=O)(=O)c2ccc(N)cc2)n1` [Sulfamerazine] is higher in cell viability: 0.847 ± 0.028 for the first, 1.05 ± 0.018 for the second.

`CC1(C)CC[C@]2(C(=O)O)CC[C@]3(C)C(=CC[C@@H]4[C@@]5(C)CC[C@H](O)C(C)(C)[C@@H]5CC[C@]43C)[C@@H]2C1` [Oleanolic Acid] and `CC1(C)O[C@@H]2C[C@H]3[C@@H]4CCC5=CC(=O)CC[C@]5(C)[C@@]4(F)[C@@H](O)C[C@]3(C)[C@]2(C(=O)CCl)O1` [Halcinonide] are within error of each other in cell viability: 0.987 ± 0.043 for the first, 0.97 ± 0.043 for the second.

`O=C(O)CCCCC(CCSCc1ccccc1)SCc1ccccc1` (configuration not stated) and `O=C(O)Cc1cccc(OCCCN(Cc2cccc(C(F)(F)F)c2Cl)CC(c2ccccc2)c2ccccc2)c1` are within error of each other in cell viability: 0.949 ± 0.028 for the first, 1.04 ± 0.084 for the second.

`O=c1c(-c2ccc(O)cc2)coc2cc(O)ccc12` [Daidzein] and `O=c1cc(-c2ccccc2)oc2cc(O)cc(O)c12` [Chrysin] are within error of each other in cell viability: 1.01 ± 0.043 for the first, 1.05 ± 0.074 for the second.

`COc1cccc(Nc2c(C(N)=O)cnc3c(C)cc(S(=O)(=O)c4cccc(C(=O)N(C)C)c4)cc23)c1` and `CN(C)Cc1cccc(N=C(c2ccccc2)c2c(O)[nH]c3cc(C(=O)N(C)C)ccc23)c1` are within error of each other in cell viability: 0.957 ± 0.042 for the first, 0.976 ± 0.026 for the second.

`Nc1c(CC(=O)O)cccc1C(=O)c1ccc(Br)cc1` [Bromfenac Sodium] and `Cc1ccc(NC(=O)c2cccc(N(C)C)c2)cc1NC(=O)c1ccc(O)cc1` are within error of each other in cell viability: 0.998 ± 0.035 for the first, 0.9655 ± 0.006 for the second.

`C[C@]12C=CC(=O)C=C1CC[C@H]1[C@@H]3C[C@@H](O)[C@](O)(C(=O)CO)[C@@]3(C)C[C@H](O)[C@@]12F` [Triamcinolone] and `CC1(C)O[C@@H]2C[C@H]3[C@@H]4CCC5=CC(=O)C=C[C@]5(C)[C@H]4[C@@H](O)C[C@]3(C)[C@]2(C(=O)CO)O1` [Desonide] are within error of each other in cell viability: 0.924 ± 0.048 for the first, 0.947 ± 0.044 for the second.

Compared with `N#Cc1ccc(COC[C@H]2O[C@@H](n3c(NCc4ccc(Cl)c(Cl)c4)nc4c(N)ncnc43)[C@H](O)[C@@H]2O)cc1`, `CC(C)N(CCCNC(=O)Nc1ccc(C(C)(C)C)cc1)C[C@H]1O[C@@H](n2cc(Br)c3c(N)ncnc32)[C@H](O)[C@@H]1O` is higher in cell viability: 0.853 ± 0.0064 for the first, 0.9356 ± 0.0064 for the second.

First: C[C@@H]1O[C@@H](OC[C@H]2O[C@@H](Oc3c(-c4ccc(OCCO)c(OCCO)c4)oc4cc(OCCO)cc(O)c4c3=O)[C@H](O)[C@@H](O)[C@@H]2O)[C@H](O)[C@H](O)[C@H]1O [Troxerutin]
Second: CC[C@H]1OC(=O)C[C@@H](O)[C@H](C)[C@@H](O[C@@H]2O[C@H](C)[C@@H](O[C@H]3C[C@@](C)(O)[C@@H](O)[C@H](C)O3)[C@H](N(C)C)[C@H]2O)[C@@H](CC=O)C[C@@H](C)C(=O)/C=C/C(C)=C/[C@@H]1CO[C@@H]1O[C@H](C)[C@@H](O)[C@@H](OC)[C@H]1OC [Tylosin tartrate]
The cell viability of the first is lower: 0.9405 ± 0.0035 for the first, 1.05 ± 0.057 for the second.

`CCN(CC)C(=O)/C(C#N)=C/c1cc(O)c(O)c([N+](=O)[O-])c1` [Entacapone] and `O=C(/C=C/c1ccc(O)c(O)c1)c1ccc(O)cc1O` [Butein] are within error of each other in cell viability: 1.02 ± 0.022 for the first, 1.07 ± 0.06 for the second.

First: C[C@@H](O)[C@H]1C(=O)N2C(C(=O)O)=C(S[C@@H]3CN[C@H](C(=O)N(C)C)C3)[C@H](C)[C@H]12 [Meropenem]
Second: CC[C@H](C)C(=O)O[C@H]1C[C@@H](C)C=C2C=C[C@H](C)[C@H](CC[C@@H]3C[C@@H](O)CC(=O)O3)[C@H]21 [Lovastatin]
The cell viability of the first is higher: 1.07 ± 0.022 for the first, 0.96 ± 0.041 for the second.

First: Cn1nnc(-c2ccc3c(c2)[nH]c2nc(Cc4ccccc4)nc(NC4CCC(N)CC4)c23)n1 (configuration not stated)
Second: COc1cc(N2CCC(N)CC2)ccc1Nc1ncc(Cl)c(-c2c[nH]c3ccccc23)n1
The cell viability of the first is higher: 0.855 ± 0.032 for the first, 0.704 ± 0.063 for the second.

First: CC(=O)O[C@H]1C[C@@H]2CC[C@@H]3[C@H](CC[C@@]4(C)[C@H]3C[C@H]([N+]3(C)CCCCC3)[C@@H]4OC(C)=O)[C@@]2(C)C[C@@H]1N1CCCCC1 [Vecuronium Bromide]
Second: C=C[C@@]1(C)CC(=O)[C@]2(O)[C@@]3(C)[C@@H](O)CCC(C)(C)[C@@H]3[C@H](O)[C@H](OC(C)=O)[C@@]2(C)O1 [Forskolin]
The cell viability of the first is higher: 1.03 ± 0.038 for the first, 0.942 ± 0.025 for the second.

`OC(c1cc(C(F)(F)F)nc2c(C(F)(F)F)cccc12)C1CCCCN1` (configuration not stated) [Mefloquine HCl] and `C[C@]1(c2nc3c(C(N)=O)cccc3[nH]2)CCCN1` [Veliparib (ABT-888)] are the same in cell viability: 1.04 ± 0.07 for the first, 1.04 ± 0.068 for the second.

First: Cc1coc2c1C(=O)C(=O)c1c-2ccc2c1CCCC2(C)C [Tanshinone IIA]
Second: Cc1cc(NS(=O)(=O)c2ccc(N)cc2)no1 [Sulfamethoxazole]
The cell viability of the first is higher: 1.06 ± 0.068 for the first, 0.936 ± 0.023 for the second.

First: CC[C@H]1OC(=O)C[C@@H](O)[C@H](C)[C@@H](O[C@@H]2O[C@H](C)[C@@H](O)[C@H](N(C)C)[C@H]2O)[C@@H](CCN2C[C@H](C)C[C@H](C)C2)C[C@@H](C)C(=O)/C=C/C(C)=C/[C@@H]1CO[C@@H]1O[C@H](C)[C@@H](O)[C@@H](OC)[C@H]1OC [Tilmicosin]
Second: CCc1c(O)cc(O)c(C(=O)c2ccc(OCCN3CCOCC3)c(OC)c2)c1CC(=O)N(CCOC)CCOC
The cell viability of the first is higher: 0.998 ± 0.021 for the first, 0.789 ± 0.069 for the second.

`CNCCCC12CCC(c3ccccc31)c1ccccc12` [Maprotiline HCl] and `CCCCNc1cc(C(=O)O)cc(S(N)(=O)=O)c1Oc1ccccc1` [Bumetanide] are within error of each other in cell viability: 1.02 ± 0.038 for the first, 1 ± 0.015 for the second.

Compared with `CC(=O)N[C@@H](CS)C(=O)O` [Acetylcysteine], `CC1(C)S[C@@H]2[C@H](NC(=O)C(C(=O)O)c3ccccc3)C(=O)N2[C@H]1C(=O)O` (some centres not stated) [Carbenicillin disodium] is lower in cell viability: 1.08 ± 0.021 for the first, 1.02 ± 0.036 for the second.

Going from `O=c1cc(-c2ccccc2)oc2cc(O)c(O)c(O)c12` [Baicalein] to `COc1cc(C2Oc3cc([C@H]4Oc5cc(O)cc(O)c5C(=O)[C@@H]4O)ccc3OC2CO)ccc1O` (some centres not stated) [Silibinin], the cell viability falls from 1.08 ± 0.054 to 0.918 ± 0.036.

First: COc1cc(C2Oc3cc([C@H]4Oc5cc(O)cc(O)c5C(=O)[C@@H]4O)ccc3OC2CO)ccc1O (some centres not stated) [Silymarin]
Second: COc1cccc2cc(-c3nc([C@H]4CC[C@H](C(=O)O)CC4)n4ncnc(N)c34)[nH]c12
The cell viability of the first is higher: 0.981 ± 0.026 for the first, 0.328 ± 0.019 for the second.

First: CCN(CC)CCOC(=O)c1ccc(N)cc1 [Procaine HCl]
Second: CC(C)(C)C(=O)C(Oc1ccc(Cl)cc1)n1ccnc1 (configuration not stated) [Climbazole]
The cell viability of the first is lower: 0.942 ± 0.031 for the first, 1.08 ± 0.038 for the second.

`Clc1ccc(C(Cn2ccnc2)OCc2ccc(Sc3ccccc3)cc2)c(Cl)c1` (configuration not stated) [Fenticonazole Nitrate] and `O=C(O)c1ccc2c(c1)nc(Nc1cccc(Cl)c1)c1ccncc12` [CX-4945 (Silmitasertib)] are within error of each other in cell viability: 1.03 ± 0.056 for the first, 1.04 ± 0.036 for the second.

Going from `O=C1CCC[C@@H]2[C@H]3CCC[N+]4([O-])CCC[C@@H](CN12)[C@@H]34` (some centres not stated) [Oxymatrine] to `COC(=O)Nc1ccc(-c2nc(N3CCOCC3)c3cnn(C4CCN(C(=O)OC)CC4)c3n2)cc1`, the cell viability falls from 1.03 ± 0.018 to 0.957 ± 0.031.

Going from `CC(C)n1c(/C=C/C(O)CC(O)CC(=O)O)c(-c2ccc(F)cc2)c2ccccc21` (configuration not stated) [Fluvastatin Sodium] to `Nc1[nH]nc2nnc(-c3c(-c4ccccc4)nn4ccccc34)cc12`, the cell viability rises from 0.669 ± 0.019 to 0.981 ± 0.077.

`C[C@H](Cn1cnc2c(N)ncnc21)OCP(=O)(O)O` [Tenofovir] and `CCC[S+]([O-])c1ccc2[nH]c(NC(=O)OC)nc2c1` (configuration not stated) [Albendazole Oxide] are within error of each other in cell viability: 0.999 ± 0.078 for the first, 0.924 ± 0.014 for the second.

`COC(=O)N[C@H](C(=O)N[C@@H](Cc1ccccc1)[C@@H](O)CN(Cc1ccc(-c2ccccn2)cc1)NC(=O)[C@@H](NC(=O)OC)C(C)(C)C)C(C)(C)C` [Atazanavir Sulfate] and `COC(=O)C1=C(C)NC(C)=C(C(=O)OC2CCCN(Cc3ccccc3)C2)C1c1cccc([N+](=O)[O-])c1` (configuration not stated) [Benidipine HCl] are within error of each other in cell viability: 1.03 ± 0.027 for the first, 1.02 ± 0.016 for the second.

`CNC[C@H](O)[C@@H](O)[C@H](O)[C@H](O)CO` [Meglumine] and `CCNC(=O)CCC/C=C\C[C@@H]1[C@@H](/C=C/[C@@H](O)CCc2ccccc2)[C@H](O)C[C@@H]1O` [Bimatoprost] are within error of each other in cell viability: 0.988 ± 0.044 for the first, 1.05 ± 0.047 for the second.

Compared with `NC(=O)OCC(COC(N)=O)c1ccccc1` [Felbamate], `O=C(CCCCCN1C(=O)c2cccc3cccc(c23)C1=O)NO` [Scriptaid] is lower in cell viability: 1.04 ± 0.059 for the first, 0.901 ± 0.013 for the second.

Going from `CCOC(=O)n1ccn(C)c1=S` [Carbimazole] to `CCN(CC)C(=S)SSC(=S)N(CC)CC` [Disulfiram], the cell viability falls from 1.07 ± 0.044 to 0.264 ± 0.057.

Going from `COc1cc2/c(=N/c3ccc(Br)cc3F)nc[nH]c2cc1OCC1CCN(C)CC1` [Vandetanib (ZD6474)] to `O=C1NCCc2[nH]c(-c3ccncc3)cc21`, the cell viability falls from 1.01 ± 0.036 to 0.761 ± 0.053.
